Inconclusive means that the source gave no clear call. Such entries were picked first, then a sample of the others. A call without a number means that no potency is given here. For part of these data: A potency beside an inconclusive call is a rough fit, not a confirmed value. Where a structure was tested more than once in an assay, its records may differ in their call. Active and inactive are the calls of the source. Calls come from the whole dose curve; as a rule, active = well fitted curve in the direction sought with a large enough effect in the repeat runs; inconclusive = weak or mixed curves; inactive = no such curve, though single readings can be large; an effect the other way counts as inactive or inconclusive.
Columns and labels:
[1] = target: Cytochrome P450 2C19 (Homo sapiens) (UniProt P33261); test: Cytochrome P450 Family 2 Subfamily C Member 19 (CYP2C19) small molecule antagonists: luciferase reporter qHTS assay (AID 1671197); note: nearly all actives have a fitted effect of over 65% in size; note: potency is the fitted concentration of half-maximal effect
In short: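 Luminescent readout of CYP2C19 activity: luciferin product detected 20 min after adding detection reagent. Before that, compound and enzyme-substrate mix preincubated 10 min at room temperature; NADPH-regenerating system started a 1 h, 37C reaction. Ketoconazole as positive control.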

[2] = target: Cytochrome P450 2D6 (Homo sapiens) (UniProt P10635); test: Cytochrome P450 Family 2 Subfamily D Member 6 (CYP2D6) small molecule antagonists: luciferase reporter qHTS assay (AID 1671196); note: nearly all actives have a fitted effect of over 50% in size; note: potency is the fitted concentration of half-maximal effect
In short: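 CYP2D6 activity was followed as luminescence from its luciferin product after a 1 h NADPH-driven reaction at room temperature. Enzyme-substrate mix and compound were pre-incubated for 10 min, and the signal was read 20 min after adding detection reagent.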

[3] = target: Cytochrome P450 1A2 (Homo sapiens) (UniProt P05177); test: Cytochrome P450 Family 1 Subfamily A Member 2 (CYP1A2) small molecule antagonists: luciferase reporter qHTS assay (AID 1671199); note: nearly all actives have a fitted effect of over 50% in size; note: potency is the fitted concentration of half-maximal effect
In short: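 Luminescence from luciferin formed by CYP1A2 from a proluciferin substrate, read 20 min after detection reagent. Compound was pre-incubated 10 min with enzyme-substrate, and reaction started with NADPH regeneration solution for 1 h at room temperature; furafylline control.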

[4] = target: Cytochrome P450 3A4 (Homo sapiens) (UniProt P08684); test: Cytochrome P450 Family 3 Subfamily A Member 4 (CYP3A4) small molecule antagonists: luciferase reporter qHTS assay (AID 1671201); note: series mostly up to about 120 µM; nearly all actives have a fitted effect of over 50% in size
In short: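 Setup: enzyme-substrate mix, compound pin transfer, 10 min RT. Reaction: NADPH regeneration solution, 1 h RT. Readout: detection reagent stops turnover, luminescence measured after 20 min, expressed in relative luminescence units.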

[5] = target: Voltage-gated inwardly rectifying potassium channel KCNH2 (Homo sapiens) (UniProt Q12809); test: Human Ether-a-go-go-Related Gene (hERG) channel small molecule antagonists: fluorescence cell-based qHTS assay (AID 1671200); note: potency is the fitted concentration of half-maximal effect; nearly all actives have a fitted effect of over 50% in size
In short: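 Measured: Tl+ flux via fluorescence (480/540 nm) in hERG-expressing U2OS cells after 1 h dye loading at room temperature.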
Tags give direction and shape of the fitted curve.

Chain of UniProt P10635 (P10635 whole entry, looked up): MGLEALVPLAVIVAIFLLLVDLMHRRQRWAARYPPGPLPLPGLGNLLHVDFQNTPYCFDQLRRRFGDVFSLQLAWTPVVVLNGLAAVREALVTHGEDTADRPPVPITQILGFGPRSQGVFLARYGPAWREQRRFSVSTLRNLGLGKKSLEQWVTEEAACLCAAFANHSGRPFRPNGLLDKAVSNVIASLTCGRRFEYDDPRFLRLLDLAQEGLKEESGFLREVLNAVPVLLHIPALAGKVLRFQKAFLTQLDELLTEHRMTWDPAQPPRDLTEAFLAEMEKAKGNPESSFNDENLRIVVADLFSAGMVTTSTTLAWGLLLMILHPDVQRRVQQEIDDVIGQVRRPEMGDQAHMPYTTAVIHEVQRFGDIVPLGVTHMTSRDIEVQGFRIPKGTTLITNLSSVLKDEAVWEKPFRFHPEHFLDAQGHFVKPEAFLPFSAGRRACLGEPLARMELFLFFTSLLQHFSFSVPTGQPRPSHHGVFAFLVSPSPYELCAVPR
Chain of UniProt P33261 (P33261 whole entry, looked up): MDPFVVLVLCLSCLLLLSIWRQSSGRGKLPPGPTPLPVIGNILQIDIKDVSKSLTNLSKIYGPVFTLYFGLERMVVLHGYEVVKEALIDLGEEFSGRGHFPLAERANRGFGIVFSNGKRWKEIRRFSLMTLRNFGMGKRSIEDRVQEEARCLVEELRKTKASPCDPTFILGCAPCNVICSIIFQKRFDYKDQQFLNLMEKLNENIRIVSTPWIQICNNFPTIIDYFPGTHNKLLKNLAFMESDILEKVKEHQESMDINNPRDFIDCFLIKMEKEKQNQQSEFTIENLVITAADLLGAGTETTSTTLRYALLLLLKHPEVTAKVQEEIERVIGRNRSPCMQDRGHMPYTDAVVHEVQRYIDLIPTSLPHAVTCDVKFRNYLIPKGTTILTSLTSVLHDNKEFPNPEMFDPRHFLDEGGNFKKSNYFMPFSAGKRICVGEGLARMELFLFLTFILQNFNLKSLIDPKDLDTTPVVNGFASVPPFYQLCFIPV
Chain of UniProt P05177 (P05177 whole entry, looked up): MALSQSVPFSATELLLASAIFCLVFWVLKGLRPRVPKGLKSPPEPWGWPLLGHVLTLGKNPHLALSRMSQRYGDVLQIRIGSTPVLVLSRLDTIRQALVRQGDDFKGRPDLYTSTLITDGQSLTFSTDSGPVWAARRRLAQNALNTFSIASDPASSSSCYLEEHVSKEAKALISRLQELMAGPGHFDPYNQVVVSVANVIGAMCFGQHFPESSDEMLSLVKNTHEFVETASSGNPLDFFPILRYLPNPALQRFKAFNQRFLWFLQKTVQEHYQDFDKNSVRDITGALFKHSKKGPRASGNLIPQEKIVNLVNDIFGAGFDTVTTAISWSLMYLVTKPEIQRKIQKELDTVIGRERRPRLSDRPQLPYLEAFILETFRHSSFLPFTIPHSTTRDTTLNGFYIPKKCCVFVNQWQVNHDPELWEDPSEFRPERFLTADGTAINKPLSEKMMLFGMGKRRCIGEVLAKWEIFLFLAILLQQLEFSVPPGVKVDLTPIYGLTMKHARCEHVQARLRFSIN
Chain of UniProt Q12809 (Q12809 whole entry, looked up): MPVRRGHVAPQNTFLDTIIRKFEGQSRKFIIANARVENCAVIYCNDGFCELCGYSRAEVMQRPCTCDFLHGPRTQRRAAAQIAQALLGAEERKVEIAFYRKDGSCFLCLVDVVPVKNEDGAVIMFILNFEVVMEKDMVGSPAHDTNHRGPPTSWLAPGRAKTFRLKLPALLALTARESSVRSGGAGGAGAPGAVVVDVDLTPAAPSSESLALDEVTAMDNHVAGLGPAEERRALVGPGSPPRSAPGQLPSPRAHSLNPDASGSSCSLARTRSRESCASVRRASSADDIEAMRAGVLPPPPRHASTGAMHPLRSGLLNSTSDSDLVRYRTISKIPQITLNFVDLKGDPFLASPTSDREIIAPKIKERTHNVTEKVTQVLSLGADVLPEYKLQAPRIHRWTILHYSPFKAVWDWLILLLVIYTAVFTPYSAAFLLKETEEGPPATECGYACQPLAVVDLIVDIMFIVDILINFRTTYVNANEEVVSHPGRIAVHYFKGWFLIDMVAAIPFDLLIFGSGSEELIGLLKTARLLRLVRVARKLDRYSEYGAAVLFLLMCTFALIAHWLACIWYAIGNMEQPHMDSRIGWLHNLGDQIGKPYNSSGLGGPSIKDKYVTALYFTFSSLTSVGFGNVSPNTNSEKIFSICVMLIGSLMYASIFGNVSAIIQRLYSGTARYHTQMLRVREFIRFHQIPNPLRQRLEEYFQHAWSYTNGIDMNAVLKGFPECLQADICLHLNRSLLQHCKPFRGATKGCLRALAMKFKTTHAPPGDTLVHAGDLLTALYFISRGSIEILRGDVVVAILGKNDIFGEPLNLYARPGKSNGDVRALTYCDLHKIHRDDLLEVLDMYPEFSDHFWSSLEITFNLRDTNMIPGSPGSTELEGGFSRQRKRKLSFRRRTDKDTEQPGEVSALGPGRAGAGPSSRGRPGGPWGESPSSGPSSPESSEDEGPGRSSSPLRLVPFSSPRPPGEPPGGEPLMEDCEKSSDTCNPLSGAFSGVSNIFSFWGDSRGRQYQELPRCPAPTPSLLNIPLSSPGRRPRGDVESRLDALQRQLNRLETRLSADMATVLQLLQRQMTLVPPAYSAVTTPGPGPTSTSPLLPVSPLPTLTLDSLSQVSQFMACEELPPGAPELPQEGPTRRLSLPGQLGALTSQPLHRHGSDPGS
Chain of UniProt P08684 (P08684 whole entry, looked up): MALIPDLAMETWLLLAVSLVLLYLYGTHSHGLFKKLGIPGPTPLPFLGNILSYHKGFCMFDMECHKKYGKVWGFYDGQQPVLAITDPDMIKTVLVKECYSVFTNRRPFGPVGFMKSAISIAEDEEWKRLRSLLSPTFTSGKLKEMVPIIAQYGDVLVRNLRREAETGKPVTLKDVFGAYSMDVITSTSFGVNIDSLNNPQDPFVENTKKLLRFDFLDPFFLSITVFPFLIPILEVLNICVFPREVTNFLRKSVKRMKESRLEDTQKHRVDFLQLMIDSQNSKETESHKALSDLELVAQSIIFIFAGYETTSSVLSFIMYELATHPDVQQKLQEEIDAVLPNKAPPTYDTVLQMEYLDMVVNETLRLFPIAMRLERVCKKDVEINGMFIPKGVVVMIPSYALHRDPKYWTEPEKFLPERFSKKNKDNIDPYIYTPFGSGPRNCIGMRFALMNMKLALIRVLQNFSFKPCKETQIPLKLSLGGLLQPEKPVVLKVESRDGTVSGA

CCCC(=O)OCC
Potency [1]: inactive

CC(=O)CC(N)=O
Potency [2]: inactive | Potency [3]: inactive

CC(=O)N(CC(O)CN(C(C)=O)c1c(I)c(C(=O)NCC(O)CO)c(I)c(C(=O)NCC(O)CO)c1I)c1c(I)c(C(=O)NCC(O)CO)c(I)c(C(=O)NCC(O)CO)c1I (stereo unspecified)
Potency [2]: inactive | Potency [3]: inactive

O=C(c1ccccc1)C1(O)CCCCC1
Potency [2]: inactive | Potency [3]: inconclusive: 39.9 µM [inhibitor, partial curve]

Cc1nnc(C(=O)NC(C)(C)c2nc(C(=O)NCc3ccc(F)cc3)c(O)c(=O)n2C)o1
Potency [1]: inactive

Cc1c(C(=O)NCCO)[n+](=O)c2ccccc2n1[O-]
Potency [1]: inactive

C=C(C)C1CCC(C)CC1O (stereo unspecified)
Potency [2]: inactive | Potency [3]: inactive | Potency [4]: inactive

CC(=O)/C=C/C1C(C)=CCCC1(C)C (stereo unspecified)
Potency [1]: inconclusive: 89.4 µM [inhibitor, single point]

OCCC(O)CO (stereo unspecified)
Potency [1]: inactive

CC[N+](CC)(CC(=O)Nc1c(C)cccc1C)Cc1ccccc1 (tested in a mixture with another compound)
Potency [2]: active: 0.0262 µM | Potency [3]: inactive | Potency [5]: inconclusive: 12.8 µM [inhibitor, partial curve]

CCc1c(C)[nH]c2c1C(=O)C(CN1CCOCC1)CC2 (stereo unspecified)
Potency [1]: inconclusive: 7.76 µM [inhibitor, full curve, poor fit]

Cn1cnc2c(=O)[nH]c(N)nc21
Potency [1]: inconclusive: 89.6 µM [inhibitor, single point]

O=C1CCCC(=O)O1
Potency [2]: inconclusive: 35.6 µM [inhibitor, partial curve, poor fit] | Potency [3]: inactive
